Some of the results follow.

One assay relates to HSkMC. Kind of assay: cytotoxicity call (relative viability < 0.9). The note with it: 10 µM.
For a further assay, the system named is HepG2. Kind of assay: cytotoxicity call (relative viability < 0.9). The note with it: 10 µM.
The test system of a further assay is S. aureus RN4220. As to the kind of experiment: growth inhibition call (relative growth <= 0.2). The note with it: 50 µM.

For the compound `C[C@@H]1CN([C@H](C)CO)C(=O)c2cc(NC(=O)CCC(F)(F)F)ccc2O[C@@H](C)CCCCO[C@H]1CN(C)Cc1ccc(Cl)c(Cl)c1`, the cytotoxicity call in the assay with HSkMC and in the assay on HepG2 was “active” in each case. For the same compound, in the assay on S. aureus RN4220, the growth inhibition call is “inactive”.

Consider `C[C@@H]1CN([C@@H](C)CO)C(=O)c2cc(N(C)C)ccc2O[C@@H](C)CCCCO[C@H]1CN(C)S(=O)(=O)c1cn(C)cn1`, for which the cytotoxicity call in the assay on HSkMC and in the assay with HepG2 was “inactive” in each case. The growth inhibition call with S. aureus RN4220 is “inactive”.

As to `C[C@@H]1CN([C@H](C)CO)C(=O)Cc2cc(NS(C)(=O)=O)ccc2O[C@H]1CN(C)S(=O)(=O)c1ccc(Cl)cc1`, the cytotoxicity call with HSkMC and in the assay with HepG2 was “inactive” each time. Besides, the growth inhibition call with S. aureus RN4220 was “inactive”.

With `O=c1[nH][nH]c(=O)c(Cl)c1Cl`, the cytotoxicity call in the assay with HSkMC and in the assay on HepG2 was “inactive” throughout. For the same compound, the growth inhibition call with S. aureus RN4220 is “inactive”.

In the case of `NCc1ccccc1N1CCC(CO)CC1`, the cytotoxicity call in the assay on HSkMC and in the assay with HepG2 was “inactive” throughout. Moreover, in the assay on S. aureus RN4220, the growth inhibition call is “inactive”.

Regarding `[O-][NH2+]N(O)c1ccccc1`, the cytotoxicity call in the assay with HSkMC and in the assay with HepG2 was “inactive” in each case. Further, in the assay with S. aureus RN4220, the growth inhibition call is “inactive”.

Take `Cn1nc(C2CC2)cc1N`: the cytotoxicity call with HSkMC and in the assay on HepG2 was “inactive” each time. Besides, in the assay with S. aureus RN4220, the growth inhibition call is “inactive”.

For `Nc1ccc(F)cn1`, the cytotoxicity call in the assay on HSkMC and in the assay with HepG2 was “inactive” in each case. Also, the growth inhibition call in the assay on S. aureus RN4220 was “inactive”.

For the compound `COc1ccc(CN(C)C[C@@H]2Oc3ccc(NC(=O)CCCCCC(=O)Nc4ccccc4N)cc3CC(=O)N([C@H](C)CO)C[C@@H]2C)cc1`, the cytotoxicity call in the assay with HSkMC and in the assay on HepG2 was “inactive” each time. The growth inhibition call with S. aureus RN4220 was “inactive”.

As to `CCC(=O)O[C@@H](OP(=O)(CCCCc1ccccc1)CC(=O)N1C[C@H](C2CCCCC2)C[C@H]1C(=O)O)C(C)C` (some centres undefined), the cytotoxicity call in the assay with HSkMC and in the assay on HepG2 was “inactive” each time. Moreover, in the assay on S. aureus RN4220, the growth inhibition call was “inactive”.

For the compound `C=CCNC(=O)[C@@H]1[C@H]2C(=O)O[C@H](c3ccccc3)[C@H](c3ccccc3)N2[C@H](c2ccc(O)cc2)[C@@]12C(=O)N(C(=O)OCCOC)c1ccc(C#Cc3ccc(OC)cc3)cc12`, the cytotoxicity call in the assay on HSkMC and in the assay with HepG2 was “inactive” in each case. The growth inhibition call in the assay on S. aureus RN4220 was “inactive”.

For `CCNc1ncnc2c1nnn2C`, the cytotoxicity call in the assay on HSkMC and in the assay on HepG2 was “inactive” each time. Besides, the growth inhibition call in the assay on S. aureus RN4220 was “inactive”.

As for `Cc1noc(C)c1S(=O)(=O)Nc1ccc2c(c1)C(=O)N([C@@H](C)CO)C[C@@H](C)[C@@H](CN(C)C(=O)Nc1ccc(C(F)(F)F)cc1)OCCCC[C@@H](C)O2`, the cytotoxicity call in the assay on HSkMC and with HepG2 was “inactive” in each case. Besides, in the assay with S. aureus RN4220, the growth inhibition call was “inactive”.

As to `C[C@@H]1CCCCO[C@H](CN(C)C(=O)NC2CCCCC2)[C@H](C)CN([C@H](C)CO)C(=O)c2cc(NC(=O)c3ccncc3)ccc2O1`, the cytotoxicity call with HSkMC and in the assay on HepG2 was “inactive” throughout. Also, the growth inhibition call with S. aureus RN4220 is “inactive”.

For the compound `CCCCCCc1nc(-c2ccc(-c3ccc(Cl)c(Cl)c3)o2)cc2c1[Si](C(C)C)(C(C)C)O[C@H]2c1ccccc1`, the cytotoxicity call with HSkMC and in the assay with HepG2 was “inactive” throughout. The growth inhibition call in the assay with S. aureus RN4220 was “inactive”.

Regarding `C[C@H](CO)N1C[C@H](C)[C@H](CN(C)C(=O)Nc2ccc(C(F)(F)F)cc2)Oc2ccc(NC(=O)NC3CCCCC3)cc2C1=O`, the cytotoxicity call in the assay with HSkMC is “inactive”. The cytotoxicity call with HepG2 was “active”. Further, the growth inhibition call in the assay on S. aureus RN4220 was “inactive”.

In the case of `CC(C)(C)NC(=O)[C@@H]1CN(Cc2cccnc2)CCN1C[C@@H](O)C[C@@H](Cc1ccccc1)C(=O)N[C@@H]1c2ccccc2C[C@@H]1O`, the cytotoxicity call with HSkMC and in the assay on HepG2 was “inactive” throughout. The growth inhibition call with S. aureus RN4220 is “inactive”.

Consider `C[C@H](CO)N1C[C@H](C)[C@@H](CN(C)C(=O)Nc2ccc(N3CCCCC3)cc2)OCc2cn(nn2)CCCC1=O`, for which the cytotoxicity call with HSkMC and in the assay on HepG2 was “inactive” each time. For the same compound, the growth inhibition call in the assay on S. aureus RN4220 was “inactive”.

Turning to `C[C@@H]1CN([C@H](C)CO)C(=O)c2cc(/C=C/c3ccccc3)cnc2O[C@H]1CN(C)C(=O)c1cnccn1`, the cytotoxicity call in the assay on HSkMC and in the assay on HepG2 was “inactive” each time. For the same compound, the growth inhibition call with S. aureus RN4220 was “inactive”.

Consider `C[C@H]1CN([C@@H](C)CO)C(=O)c2cccc(NC(=O)C3CCCCC3)c2O[C@@H]1CN(C)C(=O)Nc1cccc2ccccc12`, for which the cytotoxicity call in the assay with HSkMC and in the assay with HepG2 was “inactive” each time. The growth inhibition call with S. aureus RN4220 is “inactive”.

As for `O=C(CN1CCOCC1)NCC[C@H]1CC[C@H](NC(=O)c2ccccc2F)[C@H](CO)O1`, the cytotoxicity call with HSkMC and with HepG2 was “inactive” each time. In addition, the growth inhibition call with S. aureus RN4220 is “inactive”.

On to `C[C@H]1CN([C@@H](C)CO)C(=O)c2cc(NC(=O)Cn3cnnn3)ccc2O[C@@H]1CN(C)Cc1ccc(Cl)c(Cl)c1`, for which the cytotoxicity call in the assay with HSkMC and in the assay with HepG2 was “inactive” each time. Also, the growth inhibition call in the assay with S. aureus RN4220 is “inactive”.

With `C[C@H]1CN([C@@H](C)CO)C(=O)c2cc(NC(=O)Nc3cccc4ccccc34)ccc2O[C@@H]1CN(C)S(=O)(=O)c1cccs1`, the cytotoxicity call with HSkMC and in the assay on HepG2 was “inactive” in each case. Moreover, in the assay on S. aureus RN4220, the growth inhibition call is “inactive”.

For the compound `Cc1noc(C)c1NC(=O)Nc1ccc2c(c1)C(=O)N([C@@H](C)CO)C[C@@H](C)[C@@H](CN(C)Cc1ccncc1)OCCCC[C@H](C)O2`, the cytotoxicity call in the assay on HSkMC (human skeletal muscle cells) and in the assay with HepG2 was “inactive” in each case. For the same compound, the growth inhibition call in the assay with S. aureus RN4220 was “inactive”.

Take `CO[C@H](C(=O)N(C)C[C@@H]1OCc2ccccc2-c2c(n(C)c3ccccc23)C(=O)N([C@H](C)CO)C[C@H]1C)c1ccccc1`: the cytotoxicity call in the assay with HSkMC and in the assay with HepG2 was “inactive” throughout. For the same compound, the growth inhibition call in the assay on S. aureus RN4220 was “inactive”.

With `C[C@@H]1CCCCO[C@H](CN(C)Cc2ccc(C(F)(F)F)cc2)[C@H](C)CN([C@@H](C)CO)C(=O)c2cc(NC(=O)C3CCCCC3)ccc2O1`, the cytotoxicity call in the assay with HSkMC is “inactive”. Moreover, the cytotoxicity call in the assay on HepG2 was “active”. Besides, in the assay on S. aureus RN4220, the growth inhibition call was “inactive”.

`C[C@@H]1CN([C@H](C)CO)S(=O)(=O)c2ccc(C#CC3CC3)cc2O[C@H]1CN(C)C(=O)C1CCCCC1`: the cytotoxicity call with HSkMC and with HepG2 was “inactive” throughout. In the assay on S. aureus RN4220, the growth inhibition call is “inactive”.

For the compound `NCCNCCNCCNCCN`, the cytotoxicity call in the assay with HSkMC and in the assay on HepG2 was “inactive” throughout. Further, the growth inhibition call in the assay with S. aureus RN4220 is “inactive”.

Values taken from the antibiotic and cytotoxicity screens of Wong et al. (2023).
